# Data from patent US9593149B2, “Amylin and calcitonin receptor agonist” (Novo Nordisk A/S, priority 2014, dated 2017).
# For at least one compound, name, drawing or mass did not settle the structure. Numbered stars: 1 amine (or outer) side, 2 acyl side, 3 side chain; on linkers, the order of the positions; unused ones are H or OH. Peptide text beside a SMILES is read from it. * marks the point of attachment. C20 diacid = O=C(O)CCCCCCCCCCCCCCCCCCC(=O)*; γGlu = O=C(O)[C@H](CCC(=O)[*:2])N[*:1]
# Assay: Assay (III) ThT fibrillation, physical stability
# Assay type: physicochemical
# Settings: pH 7.5, 37° C., shaking
row,Compound,ThT pH 7.5 lag time (h)
1,"CC(C)C[C@H](NC(=O)[C@H](C)NC(=O)[C@H](C)NC(=O)[C@@H](NC(=O)[C@H](CO)NC(=O)[C@H](CC(C)C)NC(=O)[C@H](CCC(=O)O)NC(=O)[C@H](CO)NC(=O)[C@H](C)NC(=O)CC[C@H](NC(=O)CCCCCCCCCCCCCCCCCCC(=O)O)C(=O)O)[C@@H](C)O)C(=O)NCC(=O)N[C@@H](CCCNC(=N)N)C(=O)N[C@@H](CC(C)C)C(=O)N[C@@H](CO)C(=O)N[C@@H](C)C(=O)N[C@@H](CCC(=O)O)C(=O)N[C@@H](CC(C)C)C(=O)N[C@@H](Cc1c[nH]cn1)C(=O)N[C@@H](CCC(=O)O)C(=O)N[C@@H](CC(C)C)C(=O)N[C@@H](C)C(=O)N[C@H](C(=O)N[C@@H](CC(C)C)C(=O)N1CCC[C@H]1C(=O)N[C@@H](CCCNC(=N)N)C(=O)N[C@H](C(=O)N[C@@H](CCC(=O)O)C(=O)N[C@H](C(=O)NCC(=O)N[C@@H](CO)C(=O)NCC(=O)N[C@@H](CO)C(=O)N[C@@H](Cc1ccccc1)C(N)=O)[C@@H](C)O)[C@@H](C)O)[C@@H](C)O [compound 61, [N-terminal(C20 diacid-gGlu), des1, 30S, 31G, 33F]mimylin] ({C20 diacid-γGlu}-ASELSTAALGRLSAELHELATLPRTETGSGSF-NH2)",>45
2,"CC(C)C[C@H](NC(=O)[C@H](CO)NC(=O)CNC(=O)[C@H](CO)NC(=O)CNC(=O)[C@@H](NC(=O)[C@H](CCC(=O)O)NC(=O)[C@@H](NC(=O)[C@H](CCCNC(=N)N)NC(=O)[C@@H]1CCCN1C(=O)[C@H](CC(C)C)NC(=O)[C@@H](NC(=O)[C@H](C)NC(=O)[C@H](CC(C)C)NC(=O)[C@H](CCC(=O)O)NC(=O)[C@H](Cc1c[nH]cn1)NC(=O)[C@H](CC(C)C)NC(=O)[C@H](CCC(=O)O)NC(=O)[C@H](C)NC(=O)[C@H](CO)NC(=O)[C@H](CC(C)C)NC(=O)[C@H](CCCNC(=N)N)NC(=O)CNC(=O)[C@H](CC(C)C)NC(=O)[C@H](C)NC(=O)[C@H](C)NC(=O)[C@@H](NC(=O)[C@H](CO)NC(=O)[C@H](CC(C)C)NC(=O)[C@H](CCC(=O)O)NC(=O)[C@H](CO)NC(=O)[C@H](C)NC(=O)CC[C@H](NC(=O)CCCCCCCCCCCCCCCCCCC(=O)O)C(=O)O)[C@@H](C)O)[C@@H](C)O)[C@@H](C)O)[C@@H](C)O)C(N)=O [compound 62, [N-terminal(C20 diacid-gGlu), des1, 30S, 31G, 33L]mimylin] ({C20 diacid-γGlu}-ASELSTAALGRLSAELHELATLPRTETGSGSL-NH2)",>45
3,"CC(C)C[C@H](NC(=O)[C@H](C)NC(=O)[C@H](C)NC(=O)[C@@H](NC(=O)[C@H](CO)NC(=O)[C@H](CC(C)C)NC(=O)[C@H](CCC(=O)O)NC(=O)[C@H](CO)NC(=O)[C@H](C)NC(=O)CC[C@H](NC(=O)CCCCCCCCCCCCCCCCCCC(=O)O)C(=O)O)[C@@H](C)O)C(=O)NCC(=O)N[C@@H](CCCNC(=N)N)C(=O)N[C@@H](CC(C)C)C(=O)N[C@@H](CO)C(=O)N[C@@H](C)C(=O)N[C@@H](CCC(=O)O)C(=O)N[C@@H](CC(C)C)C(=O)N[C@@H](Cc1c[nH]cn1)C(=O)N[C@@H](CCC(=O)O)C(=O)N[C@@H](CC(C)C)C(=O)N[C@@H](C)C(=O)N[C@H](C(=O)N[C@@H](CC(C)C)C(=O)N1CCC[C@H]1C(=O)N[C@@H](CCCNC(=N)N)C(=O)N[C@H](C(=O)N[C@@H](CCC(=O)O)C(=O)N[C@H](C(=O)NCC(=O)N[C@@H](CO)C(=O)NCC(=O)N[C@@H](CO)C(=O)N[C@@H](CO)C(N)=O)[C@@H](C)O)[C@@H](C)O)[C@@H](C)O [compound 63, [N-terminal(C20 diacid-gGlu), des1, 30S, 31G, 33S]mimylin] ({C20 diacid-γGlu}-ASELSTAALGRLSAELHELATLPRTETGSGSS-NH2)",>45
4,"CC(C)C[C@H](NC(=O)[C@H](C)NC(=O)[C@H](C)NC(=O)[C@@H](NC(=O)[C@H](CO)NC(=O)[C@H](CC(C)C)NC(=O)[C@H](CCC(=O)O)NC(=O)[C@H](CO)NC(=O)[C@H](C)NC(=O)CC[C@H](NC(=O)CCCCCCCCCCCCCCCCCCC(=O)O)C(=O)O)[C@@H](C)O)C(=O)NCC(=O)N[C@@H](CCCNC(=N)N)C(=O)N[C@@H](CC(C)C)C(=O)N[C@@H](CO)C(=O)N[C@@H](C)C(=O)N[C@@H](CCC(=O)O)C(=O)N[C@@H](CC(C)C)C(=O)N[C@@H](Cc1c[nH]cn1)C(=O)N[C@@H](CCC(=O)O)C(=O)N[C@@H](CC(C)C)C(=O)N[C@@H](C)C(=O)N[C@H](C(=O)N[C@@H](CC(C)C)C(=O)N1CCC[C@H]1C(=O)N[C@@H](CCCNC(=N)N)C(=O)N[C@H](C(=O)N[C@@H](CCC(=O)O)C(=O)N[C@H](C(=O)NCC(=O)N[C@@H](CO)C(=O)NCC(=O)N[C@@H](CO)C(=O)NCC(N)=O)[C@@H](C)O)[C@@H](C)O)[C@@H](C)O [compound 64, [N-terminal(C20 diacid-gGlu), des1, 30S, 31G, 33G]mimylin] ({C20 diacid-γGlu}-ASELSTAALGRLSAELHELATLPRTETGSGSG-NH2)",>45

# Second part, the molecule after the results:
row,ThT pH 7.5 lag time (h),Compound
1,>45,"CC(C)C[C@H](NC(=O)[C@H](C)NC(=O)[C@H](C)NC(=O)[C@@H](NC(=O)[C@H](CO)NC(=O)[C@H](CC(C)C)NC(=O)[C@H](CCC(=O)O)NC(=O)[C@H](CO)NC(=O)[C@H](C)NC(=O)CC[C@H](NC(=O)CCCCCCCCCCCCCCCCCCC(=O)O)C(=O)O)[C@@H](C)O)C(=O)NCC(=O)N[C@@H](CCCNC(=N)N)C(=O)N[C@@H](CC(C)C)C(=O)N[C@@H](CO)C(=O)N[C@@H](C)C(=O)N[C@@H](CCC(=O)O)C(=O)N[C@@H](CC(C)C)C(=O)N[C@@H](Cc1c[nH]cn1)C(=O)N[C@@H](CCC(=O)O)C(=O)N[C@@H](CC(C)C)C(=O)N[C@@H](C)C(=O)N[C@H](C(=O)N[C@@H](CC(C)C)C(=O)N1CCC[C@H]1C(=O)N[C@@H](CCCNC(=N)N)C(=O)N[C@H](C(=O)N[C@@H](CCC(=O)O)C(=O)N[C@H](C(=O)NCC(=O)N[C@@H](CO)C(=O)NCC(=O)N[C@@H](CO)C(=O)N[C@@H](C)C(N)=O)[C@@H](C)O)[C@@H](C)O)[C@@H](C)O [compound 65, [N-terminal(C20 diacid-gGlu), des1, 30S, 31G, 33A]mimylin] ({C20 diacid-γGlu}-ASELSTAALGRLSAELHELATLPRTETGSGSA-NH2)"
2,>45,"CC(C)C[C@H](NC(=O)[C@H](C)NC(=O)[C@H](C)NC(=O)[C@@H](NC(=O)[C@H](CO)NC(=O)[C@H](CC(C)C)NC(=O)[C@H](CCC(=O)O)NC(=O)[C@H](CO)NC(=O)[C@H](C)NC(=O)CC[C@H](NC(=O)CCCCCCCCCCCCCCCCCCC(=O)O)C(=O)O)[C@@H](C)O)C(=O)NCC(=O)N[C@@H](CCCNC(=N)N)C(=O)N[C@@H](CC(C)C)C(=O)N[C@@H](CO)C(=O)N[C@@H](C)C(=O)N[C@@H](CCC(=O)O)C(=O)N[C@@H](CC(C)C)C(=O)N[C@@H](Cc1c[nH]cn1)C(=O)N[C@@H](CCC(=O)O)C(=O)N[C@@H](CC(C)C)C(=O)N[C@@H](C)C(=O)N[C@H](C(=O)N[C@@H](Cc1ccc(O)cc1)C(=O)N1CCC[C@H]1C(=O)N[C@@H](CCCNC(=N)N)C(=O)N[C@H](C(=O)N[C@@H](CCC(=O)O)C(=O)N[C@H](C(=O)NCC(=O)N[C@@H](CO)C(=O)NCC(=O)N[C@@H](CO)C(=O)N[C@@H](Cc1ccc(O)cc1)C(N)=O)[C@@H](C)O)[C@@H](C)O)[C@@H](C)O [compound 80, [N-terminal(C20 diacid-gGlu), des1, 23Y, 30S, 31G, 33Y]mimylin] ({C20 diacid-γGlu}-ASELSTAALGRLSAELHELATYPRTETGSGSY-NH2)"
3,>45,"CC(C)C[C@H](NC(=O)CNC(=O)[C@H](CO)NC(=O)[C@H](C)NC(=O)CC[C@H](NC(=O)CCCCCCCCCCCCCCCCCCC(=O)O)C(=O)O)C(=O)N[C@@H](CO)C(=O)N[C@H](C(=O)N[C@@H](C)C(=O)N[C@H](C(=O)N[C@@H](CC(C)C)C(=O)NCC(=O)N[C@@H](CCCNC(=N)N)C(=O)N[C@@H](CC(C)C)C(=O)N[C@@H](CO)C(=O)N[C@@H](C)C(=O)N[C@@H](CCC(=O)O)C(=O)N[C@@H](CC(C)C)C(=O)N[C@@H](Cc1c[nH]cn1)C(=O)N[C@@H](CCC(=O)O)C(=O)N[C@@H](CC(C)C)C(=O)N[C@@H](C)C(=O)N[C@H](C(=O)N[C@@H](Cc1ccc(O)cc1)C(=O)N1CCC[C@H]1C(=O)N[C@@H](CCCNC(=N)N)C(=O)N[C@H](C(=O)N[C@@H](CCC(=O)O)C(=O)N[C@H](C(=O)NCC(=O)N[C@@H](CO)C(=O)NCC(=O)N[C@H](C(=O)N1CCC[C@H]1C(N)=O)[C@@H](C)O)[C@@H](C)O)[C@@H](C)O)[C@@H](C)O)C(C)C)[C@@H](C)O [compound 98, [N-terminal(C20 diacid-gGlu), des1, 4G, 9V, 23Y, 30S, 31G, 32T]mimylin] ({C20 diacid-γGlu}-ASGLSTAVLGRLSAELHELATYPRTETGSGTP-NH2)"
4,0,"CC(C)C[C@H](NC(=O)[C@H](C)NC(=O)[C@H](C)NC(=O)[C@@H](NC(=O)[C@H](CO)NC(=O)[C@H](CC(C)C)NC(=O)[C@H](CCC(=O)O)NC(=O)[C@H](CO)NC(=O)[C@H](C)NC(=O)CC[C@H](NC(=O)CCCCCCCCCCCCCCCCCCC(=O)O)C(=O)O)[C@@H](C)O)C(=O)NCC(=O)N[C@@H](CCCCN)C(=O)N[C@@H](CC(C)C)C(=O)N[C@@H](CO)C(=O)N[C@@H](C)C(=O)N[C@@H](CCC(=O)O)C(=O)N[C@@H](CC(C)C)C(=O)N[C@@H](Cc1c[nH]cn1)C(=O)N[C@@H](CCC(=O)O)C(=O)N[C@@H](CC(C)C)C(=O)N[C@@H](C)C(=O)N[C@H](C(=O)N[C@@H](Cc1ccc(O)cc1)C(=O)N1CCC[C@H]1C(=O)N[C@@H](CCCCN)C(=O)N[C@H](C(=O)N[C@@H](CCC(=O)O)C(=O)N[C@H](C(=O)NCC(=O)N[C@@H](CO)C(=O)NCC(=O)N[C@@H](CO)C(=O)N[C@@H](Cc1ccc(O)cc1)C(N)=O)[C@@H](C)O)[C@@H](C)O)[C@@H](C)O [compound 101, [N-terminal(C20 diacid-gGlu), des1, 12K, 23Y, 25K, 30S, 31G, 33Y]mimylin] ({C20 diacid-γGlu}-ASELSTAALGKLSAELHELATYPKTETGSGSY-NH2)"
